Here are results for 3 molecules from paper PMC8103106.

These are yes or no findings as the source states them, for the method shown. In cells and extracts the contact can be indirect. Some entries that bind do so weakly or less than the wild type. Sequences can lack the tags named with a protein.

For experiment [1], the target named is T1, endogenous VPS18 (human (endogenous in HeLa)) (UniProt Q9P253).
T1 sequence: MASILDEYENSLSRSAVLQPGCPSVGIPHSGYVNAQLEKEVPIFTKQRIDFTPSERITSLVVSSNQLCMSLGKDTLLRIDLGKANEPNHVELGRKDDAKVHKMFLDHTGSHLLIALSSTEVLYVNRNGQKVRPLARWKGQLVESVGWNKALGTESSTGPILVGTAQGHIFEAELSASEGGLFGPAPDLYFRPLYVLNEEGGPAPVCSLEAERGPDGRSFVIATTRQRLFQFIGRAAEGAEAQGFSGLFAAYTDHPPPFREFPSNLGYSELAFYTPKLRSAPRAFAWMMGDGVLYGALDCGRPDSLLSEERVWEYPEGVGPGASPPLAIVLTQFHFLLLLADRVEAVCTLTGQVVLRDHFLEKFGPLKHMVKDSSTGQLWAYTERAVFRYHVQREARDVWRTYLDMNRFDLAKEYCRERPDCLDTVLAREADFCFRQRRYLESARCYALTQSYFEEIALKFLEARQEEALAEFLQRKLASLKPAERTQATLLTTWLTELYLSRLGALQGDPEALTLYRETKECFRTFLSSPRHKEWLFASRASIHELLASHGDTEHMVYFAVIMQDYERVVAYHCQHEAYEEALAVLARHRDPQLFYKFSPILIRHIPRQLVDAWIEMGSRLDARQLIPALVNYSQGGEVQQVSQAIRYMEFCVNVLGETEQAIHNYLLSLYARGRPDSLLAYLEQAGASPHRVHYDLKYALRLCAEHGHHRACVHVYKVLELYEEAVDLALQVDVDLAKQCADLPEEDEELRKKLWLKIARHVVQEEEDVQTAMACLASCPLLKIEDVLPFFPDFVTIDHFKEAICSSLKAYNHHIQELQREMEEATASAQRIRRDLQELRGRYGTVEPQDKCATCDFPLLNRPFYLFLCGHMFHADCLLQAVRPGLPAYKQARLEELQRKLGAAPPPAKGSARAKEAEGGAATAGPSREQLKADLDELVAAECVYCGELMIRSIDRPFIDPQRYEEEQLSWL
Put plainly: co-IP; HeLa^VPS41KO cells expressing GFP-tagged VPS41 constructs; endogenous VPS18 detected; CHAPS lysis buffer.

The target of a further experiment is T2, FLAG-VPS18 (UniProt Q9P253).
T2 sequence: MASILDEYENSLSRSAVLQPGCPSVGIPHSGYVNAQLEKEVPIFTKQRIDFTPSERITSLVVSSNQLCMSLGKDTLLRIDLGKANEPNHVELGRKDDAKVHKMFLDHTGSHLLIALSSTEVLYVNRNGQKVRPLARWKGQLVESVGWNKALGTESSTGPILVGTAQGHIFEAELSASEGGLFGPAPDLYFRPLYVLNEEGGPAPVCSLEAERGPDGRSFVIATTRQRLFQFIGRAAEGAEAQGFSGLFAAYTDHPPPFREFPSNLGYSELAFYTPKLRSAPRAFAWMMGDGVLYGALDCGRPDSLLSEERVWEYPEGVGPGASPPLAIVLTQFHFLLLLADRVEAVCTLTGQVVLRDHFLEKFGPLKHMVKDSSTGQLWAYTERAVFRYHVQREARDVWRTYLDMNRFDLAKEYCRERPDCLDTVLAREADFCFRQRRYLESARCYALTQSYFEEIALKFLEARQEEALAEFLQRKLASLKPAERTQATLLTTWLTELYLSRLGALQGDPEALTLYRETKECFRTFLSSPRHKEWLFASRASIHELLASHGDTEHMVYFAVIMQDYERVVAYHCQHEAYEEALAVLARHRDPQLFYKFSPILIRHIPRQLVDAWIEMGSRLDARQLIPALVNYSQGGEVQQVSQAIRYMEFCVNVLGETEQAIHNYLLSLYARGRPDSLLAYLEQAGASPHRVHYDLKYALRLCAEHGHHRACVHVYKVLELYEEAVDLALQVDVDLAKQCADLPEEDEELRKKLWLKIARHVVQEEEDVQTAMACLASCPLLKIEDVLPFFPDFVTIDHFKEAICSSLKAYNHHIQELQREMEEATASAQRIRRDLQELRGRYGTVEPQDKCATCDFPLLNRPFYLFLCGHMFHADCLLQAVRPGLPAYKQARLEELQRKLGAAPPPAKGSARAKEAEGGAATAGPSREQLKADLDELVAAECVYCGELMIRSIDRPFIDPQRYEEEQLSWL
Briefly: co-IP; HeLa cells co-expressing GFP-VPS41 constructs and FLAG-VPS18 or HA-VPS33A; CHAPS lysis buffer (50 mM Tris pH 7.5, 150 mM NaCl, 5 mM MgCl2, 1 mM DTT, 1% CHAPS); protein G beads with 2 µg antibody, overnight; which partner was precipitated is not told.

The next experiment concerns the target T3, HA-VPS33A (UniProt Q96AX1).
T3 sequence: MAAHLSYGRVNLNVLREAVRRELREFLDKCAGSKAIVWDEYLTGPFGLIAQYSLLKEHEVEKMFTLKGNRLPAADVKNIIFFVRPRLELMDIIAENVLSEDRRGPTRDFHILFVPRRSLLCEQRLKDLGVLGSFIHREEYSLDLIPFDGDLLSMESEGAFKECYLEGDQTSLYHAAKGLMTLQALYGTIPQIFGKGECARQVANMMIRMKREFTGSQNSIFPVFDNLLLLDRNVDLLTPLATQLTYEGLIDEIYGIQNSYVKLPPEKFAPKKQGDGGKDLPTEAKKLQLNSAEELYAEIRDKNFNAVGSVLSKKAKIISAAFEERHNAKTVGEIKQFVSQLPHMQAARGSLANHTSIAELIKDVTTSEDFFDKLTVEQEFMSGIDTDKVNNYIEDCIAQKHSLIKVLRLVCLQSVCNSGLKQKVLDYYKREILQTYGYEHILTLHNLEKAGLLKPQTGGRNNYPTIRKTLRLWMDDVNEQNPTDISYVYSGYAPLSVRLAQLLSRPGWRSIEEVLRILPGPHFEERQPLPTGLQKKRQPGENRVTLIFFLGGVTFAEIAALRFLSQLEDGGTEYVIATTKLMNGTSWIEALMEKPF
The description is as above.

The target in the next experiment is FLAG-RAB7, P51149. Briefly: co-IP; HeLa^WT cells transiently co-expressing VPS41-APEX2-V5 constructs and FLAG-RAB7 or GFP-Arl8b; IP on FLAG or GFP, respectively; CHAPS lysis buffer. Conditions: remark: other sources report otherwise.

B1: GFP-VPS41^WT (human vacuolar protein sorting 41, wild type, GFP-tagged) (protein, UniProt P49754-1 1-854)
chain: MAEAEEQETGSLEESTDESEEEESEEEPKLKYERLSNGVTEILQKDAASCMTVHDKFLALGTHYGKVYLLDVQGNITQKFDVSPVKINQISLDESGEHMGVCSEDGKVQVFGLYSGEEFHETFDCPIKIIAVHPHFVRSSCKQFVTGGKKLLLFERSWMNRWKSAVLHEGEGNIRSVKWRGHLIAWANNMGVKIFDIISKQRITNVPRDDISLRPDMYPCSLCWKDNVTLIIGWGTSVKVCSVKERHASEMRDLPSRYVEIVSQFETEFYISGLAPLCDQLVVLSYVKEISEKTEREYCARPRLDIIQPLSETCEEISSDALTVRGFQENECRDYHLEYSEGESLFYIVSPRDVVVAKERDQDDHIDWLLEKKKYEEALMAAEISQKNIKRHKILDIGLAYINHLVERGDYDIAARKCQKILGKNAALWEYEVYKFKEIGQLKAISPYLPRGDPVLKPLIYEMILHEFLESDYEGFATLIREWPGDLYNNSVIVQAVRDHLKKDSQNKTLLKTLAELYTYDKNYGNALEIYLTLRHKDVFQLIHKHNLFSSIKDKIVLLMDFDSEKAVDMLLDNEDKISIKKVVEELEDRPELQHVYLHKLFKRDHHKGQRYHEKQISLYAEYDRPNLLPFLRDSTHCPLEKALEICQQRNFVEETVYLLSRMGNSRSALKMIMEELHDVDKAIEFAKEQDDGELWEDLILYSIDKPPFITGLLNNIGTHVDPILLIHRIKEGMEIPNLRDSLVKILQDYNLQILLREGCKKILVADSLSLLKKMHRTQMKGVLVDEENICESCLSPILPSDAAKPFSVVVFHCRHMFHKECLPMPSMNSAAQFCNICSAKNRGPGSAILEMKK
In the case of B1, the binding entry (in experiment [1]; with FLAG-VPS18; in the experiment with HA-VPS33A) was “binds” throughout.

B2: GFP-VPS41^S285P (protein, UniProt P49754-1 1-854)
chain: MAEAEEQETGSLEESTDESEEEESEEEPKLKYERLSNGVTEILQKDAASCMTVHDKFLALGTHYGKVYLLDVQGNITQKFDVSPVKINQISLDESGEHMGVCSEDGKVQVFGLYSGEEFHETFDCPIKIIAVHPHFVRSSCKQFVTGGKKLLLFERSWMNRWKSAVLHEGEGNIRSVKWRGHLIAWANNMGVKIFDIISKQRITNVPRDDISLRPDMYPCSLCWKDNVTLIIGWGTSVKVCSVKERHASEMRDLPSRYVEIVSQFETEFYISGLAPLCDQLVVLPYVKEISEKTEREYCARPRLDIIQPLSETCEEISSDALTVRGFQENECRDYHLEYSEGESLFYIVSPRDVVVAKERDQDDHIDWLLEKKKYEEALMAAEISQKNIKRHKILDIGLAYINHLVERGDYDIAARKCQKILGKNAALWEYEVYKFKEIGQLKAISPYLPRGDPVLKPLIYEMILHEFLESDYEGFATLIREWPGDLYNNSVIVQAVRDHLKKDSQNKTLLKTLAELYTYDKNYGNALEIYLTLRHKDVFQLIHKHNLFSSIKDKIVLLMDFDSEKAVDMLLDNEDKISIKKVVEELEDRPELQHVYLHKLFKRDHHKGQRYHEKQISLYAEYDRPNLLPFLRDSTHCPLEKALEICQQRNFVEETVYLLSRMGNSRSALKMIMEELHDVDKAIEFAKEQDDGELWEDLILYSIDKPPFITGLLNNIGTHVDPILLIHRIKEGMEIPNLRDSLVKILQDYNLQILLREGCKKILVADSLSLLKKMHRTQMKGVLVDEENICESCLSPILPSDAAKPFSVVVFHCRHMFHKECLPMPSMNSAAQFCNICSAKNRGPGSAILEMKK
With B2, the binding result (in experiment [1]; with FLAG-VPS18; with HA-VPS33A) was “binds” throughout.

B3: VPS41^WT-APEX2-V5, P49754-1 1-854 (protein)
chain: MAEAEEQETGSLEESTDESEEEESEEEPKLKYERLSNGVTEILQKDAASCMTVHDKFLALGTHYGKVYLLDVQGNITQKFDVSPVKINQISLDESGEHMGVCSEDGKVQVFGLYSGEEFHETFDCPIKIIAVHPHFVRSSCKQFVTGGKKLLLFERSWMNRWKSAVLHEGEGNIRSVKWRGHLIAWANNMGVKIFDIISKQRITNVPRDDISLRPDMYPCSLCWKDNVTLIIGWGTSVKVCSVKERHASEMRDLPSRYVEIVSQFETEFYISGLAPLCDQLVVLSYVKEISEKTEREYCARPRLDIIQPLSETCEEISSDALTVRGFQENECRDYHLEYSEGESLFYIVSPRDVVVAKERDQDDHIDWLLEKKKYEEALMAAEISQKNIKRHKILDIGLAYINHLVERGDYDIAARKCQKILGKNAALWEYEVYKFKEIGQLKAISPYLPRGDPVLKPLIYEMILHEFLESDYEGFATLIREWPGDLYNNSVIVQAVRDHLKKDSQNKTLLKTLAELYTYDKNYGNALEIYLTLRHKDVFQLIHKHNLFSSIKDKIVLLMDFDSEKAVDMLLDNEDKISIKKVVEELEDRPELQHVYLHKLFKRDHHKGQRYHEKQISLYAEYDRPNLLPFLRDSTHCPLEKALEICQQRNFVEETVYLLSRMGNSRSALKMIMEELHDVDKAIEFAKEQDDGELWEDLILYSIDKPPFITGLLNNIGTHVDPILLIHRIKEGMEIPNLRDSLVKILQDYNLQILLREGCKKILVADSLSLLKKMHRTQMKGVLVDEENICESCLSPILPSDAAKPFSVVVFHCRHMFHKECLPMPSMNSAAQFCNICSAKNRGPGSAILEMKK
With B3, in the experiment with FLAG-RAB7, P51149, the binding result was “binds”.
